The other results are listed elsewhere or left out. Many values rest on one well or one pass, so single values are uncertain.
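Note: cell number obtained by counting DAPI-stained nuclei in high-throughput microscope images with image analysis software, screen run in 1,536-well plates.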

In the test the test system is MeWo. Put plainly: cell count relative to DMSO control; melanoma cells; higher = more viable cells. Conditions: library dose: low library concentration; 72 h.
`O=C(O)[C@@H]1[O][Sb](=[O])([O][Sb]2(=[O])[O][C@H]([C@H](O)CO)[C@H](O)[C@H](C(=O)O)[O]2)[O][C@H]([C@H](O)CO)[C@@H]1O` (some centres not stated) [stibogluconate] + OCc1c[nH]c2ccccc12 [Indole-3-carbinol] (first compound 2 µM, partner dose 0.8 µM) had a cell count of 94.1%.
In turn, `O=C(Nc1cc(C(F)(F)F)cc(C(F)(F)F)c1)c1cc(Cl)ccc1O` + Clc1ccc(Nc2nnc(Cc3ccncc3)c3ccccc23)cc1 [vatalanib] (first compound 0.016 µM, partner dose 2 µM) came in with a cell count of 80.9%.
`O=C(Nc1cc(C(F)(F)F)cc(C(F)(F)F)c1)c1cc(Cl)ccc1O` + CN(NC(=O)CC(=O)NN(C)C(=S)c1ccccc1)C(=S)c1ccccc1 [STA4783] (first compound 0.016 µM, partner dose 0.006 µM) gave a cell count of 103%.
As for `O=C(Nc1cc(C(F)(F)F)cc(C(F)(F)F)c1)c1cc(Cl)ccc1O` + COCC[n+]1c2c(n(Cc3cnccn3)c1C)C(=O)c1ccccc1C2=O [YM155] (first compound 0.016 µM, partner dose 0.0004 µM), the figure is 112%; as for `O=C(Nc1cc(C(F)(F)F)cc(C(F)(F)F)c1)c1cc(Cl)ccc1O` + O=C(O)c1ccc2c(c1)nc(Nc1cccc(Cl)c1)c1ccncc12 [CX4945] (first compound 0.016 µM, partner dose 0.4 µM), 118%.
`O=C(Nc1cc(C(F)(F)F)cc(C(F)(F)F)c1)c1cc(Cl)ccc1O` + CCCCCCCCCCCCCCCCCCOP(=O)([O-])OC1CC[N+](C)(C)CC1 [Perifosine] (first compound 0.016 µM, partner dose 0.4 µM) registered a cell count of 101%.
Consider `O=C(O)c1ccc2c(c1)nc(Nc1cccc(Cl)c1)c1ccncc12` + NC(=O)Nc1cc(-c2cccc(F)c2)sc1C(=O)N[C@H]1CCCNC1 [AZD7762] (first compound 0.4 µM, partner dose 0.02 µM), for which the cell count is 99.1%.
In the case of `O=C(Nc1cc(C(F)(F)F)cc(C(F)(F)F)c1)c1cc(Cl)ccc1O` + C#Cc1cccc(Nc2ncnc3cc(OCCOC)c(OCCOC)cc23)c1 [erlotinib] (first compound 0.016 µM, partner dose 0.8 µM), the cell count turned out to be 82%.
The result for `O=C(O)[C@@H]1[O][Sb](=[O])([O][Sb]2(=[O])[O][C@H]([C@H](O)CO)[C@H](O)[C@H](C(=O)O)[O]2)[O][C@H]([C@H](O)CO)[C@@H]1O` (some centres not stated) [stibogluconate] + Nc1nc(F)nc2c1ncn2[C@@H]1O[C@H](CO)[C@@H](O)[C@@H]1O [fludarabine] (first compound 2 µM, partner dose 0.2 µM) reads 48.9%; that for `O=C(O)[C@@H]1[O][Sb](=[O])([O][Sb]2(=[O])[O][C@H]([C@H](O)CO)[C@H](O)[C@H](C(=O)O)[O]2)[O][C@H]([C@H](O)CO)[C@@H]1O` (some centres not stated) [stibogluconate] + Cn1nnc2c(C(N)=O)ncn2c1=O [temozolomide] (first compound 2 µM, partner dose 2 µM), 112%; that for `O=C(O)[C@@H]1[O][Sb](=[O])([O][Sb]2(=[O])[O][C@H]([C@H](O)CO)[C@H](O)[C@H](C(=O)O)[O]2)[O][C@H]([C@H](O)CO)[C@@H]1O` (some centres not stated) [stibogluconate] + CC(C)(C)c1cnc(CSc2cnc(NC(=O)C3CCNCC3)s2)o1 [SNS-032] (first compound 2 µM, partner dose 0.01 µM), 96.4%.
As for `O=C(O)c1ccc2c(c1)nc(Nc1cccc(Cl)c1)c1ccncc12` + CO[C@@H]1[C@H](N(C)C(=O)c2ccccc2)C[C@H]2O[C@]1(C)n1c3ccccc3c3c4c(c5c6ccccc6n2c5c31)C(=O)NC4 [Midostaurin] (first compound 0.4 µM, partner dose 0.08 µM), the figure is 77.6%; as for `O=C(O)[C@@H]1[O][Sb](=[O])([O][Sb]2(=[O])[O][C@H]([C@H](O)CO)[C@H](O)[C@H](C(=O)O)[O]2)[O][C@H]([C@H](O)CO)[C@@H]1O` (some centres not stated) [stibogluconate] + COCC[n+]1c2c(n(Cc3cnccn3)c1C)C(=O)c1ccccc1C2=O [YM155] (first compound 2 µM, partner dose 0.0004 µM), 87.5%.
Take `O=C(Nc1cc(C(F)(F)F)cc(C(F)(F)F)c1)c1cc(Cl)ccc1O` + NC1(c2ccc(-c3nc4ccn5c(=O)[nH]nc5c4cc3-c3ccccc3)cc2)CCC1 [MK2206] (first compound 0.016 µM, partner dose 0.4 µM): the cell count was 81.8%.
As for `O=C(Nc1cc(C(F)(F)F)cc(C(F)(F)F)c1)c1cc(Cl)ccc1O` + O=c1[nH]nc(Sc2ncc([N+](=O)[O-])s2)n1-c1ccc2c(c1)OCCO2 [BI78D3] (first compound 0.016 µM, partner dose 0.2 µM), the figure is 103%.
As for `O=C(O)[C@@H]1[O][Sb](=[O])([O][Sb]2(=[O])[O][C@H]([C@H](O)CO)[C@H](O)[C@H](C(=O)O)[O]2)[O][C@H]([C@H](O)CO)[C@@H]1O` (some centres not stated) [stibogluconate] + Nc1cccc2c1CN(C1CCC(=O)NC1=O)C2=O [lenalidomide] (first compound 2 µM, partner dose 1 µM), the figure is 86.6%; as for `Cn1nnc2c(C(N)=O)ncn2c1=O` [temozolomide] + CN(NC(=O)CC(=O)NN(C)C(=S)c1ccccc1)C(=S)c1ccccc1 [STA4783] (first compound 2 µM, partner dose 0.006 µM), 105%.
